The values that follow come from PMC4336329 (PLoS ONE, 2015).

Among all 310,000 compounds or so, about 14,000 (4.5%) showed an effect of 50% or more. The effect is printed as a negative number. The list shows a part of the results.
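Further: peak tail current of the secondary pulse compared with the same well before compound.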

human ether-à-go-go-related gene (hERG) potassium channel, sequence (Q12809 whole entry, looked up): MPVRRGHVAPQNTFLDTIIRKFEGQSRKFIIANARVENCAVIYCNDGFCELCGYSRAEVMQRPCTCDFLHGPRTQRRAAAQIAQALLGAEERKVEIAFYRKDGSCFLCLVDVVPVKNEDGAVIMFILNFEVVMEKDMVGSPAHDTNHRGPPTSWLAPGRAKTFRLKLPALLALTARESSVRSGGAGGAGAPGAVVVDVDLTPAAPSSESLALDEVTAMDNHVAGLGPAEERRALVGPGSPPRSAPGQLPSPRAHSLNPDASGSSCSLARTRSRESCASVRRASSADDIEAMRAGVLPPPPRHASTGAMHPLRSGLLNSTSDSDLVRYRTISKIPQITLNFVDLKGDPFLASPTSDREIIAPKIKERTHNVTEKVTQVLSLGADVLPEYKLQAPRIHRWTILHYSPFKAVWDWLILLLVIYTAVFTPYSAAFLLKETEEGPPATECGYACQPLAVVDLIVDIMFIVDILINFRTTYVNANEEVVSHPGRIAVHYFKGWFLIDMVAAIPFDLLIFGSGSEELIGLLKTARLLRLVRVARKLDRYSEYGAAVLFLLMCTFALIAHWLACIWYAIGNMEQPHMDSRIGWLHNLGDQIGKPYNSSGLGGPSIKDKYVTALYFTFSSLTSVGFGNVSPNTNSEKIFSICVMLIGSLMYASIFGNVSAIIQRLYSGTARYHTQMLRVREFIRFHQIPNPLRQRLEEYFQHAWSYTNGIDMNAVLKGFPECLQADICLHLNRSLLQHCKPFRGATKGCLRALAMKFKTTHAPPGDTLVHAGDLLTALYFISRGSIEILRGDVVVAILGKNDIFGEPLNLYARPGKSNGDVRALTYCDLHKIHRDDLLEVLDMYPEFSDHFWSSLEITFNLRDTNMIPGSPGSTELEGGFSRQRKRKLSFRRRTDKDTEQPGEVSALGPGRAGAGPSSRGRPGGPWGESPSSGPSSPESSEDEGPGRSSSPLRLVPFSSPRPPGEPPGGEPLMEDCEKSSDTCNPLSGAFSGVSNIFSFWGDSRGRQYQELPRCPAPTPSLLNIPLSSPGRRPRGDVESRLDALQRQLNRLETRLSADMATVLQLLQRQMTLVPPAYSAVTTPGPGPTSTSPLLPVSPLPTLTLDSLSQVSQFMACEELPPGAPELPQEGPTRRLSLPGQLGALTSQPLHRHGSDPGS

The experiment has as its target human ether-à-go-go-related gene (hERG) potassium channel (human, UniProt Q12809). Description: primary screen, population patch clamp on CHO cells stably expressing hERG.
Turning to `Fc1ccc2[nH]c3c(NCCN4CCOCC4)ncnc3c2c1`, the “hERG current change (%, negative = inhibition) at 10uM” value is on record as -16.8%.

For the compound `CC(NC(=O)COc1ccc(Br)cc1)C(=O)O` (stereo not drawn), the “hERG current change (%, negative = inhibition) at 10uM” value came out at 5.37%.

`O=C(CSc1nccn1-c1ccc(F)cc1)Nc1ccc2c(c1)OCO2`: the “hERG current change (%, negative = inhibition) at 10uM” value is reported as -8.64%. The figure for `CC(C)Nc1nnc(SCC(=O)N2CCN(C(=O)c3ccco3)CC2)s1` is -2.72%; for `CC(C)(C)c1cc(Cl)ccc1OCCOCCN1CCCC1.O=C(O)C(=O)O` it is -45.8%; for `Cc1cc(F)ccc1NC(=O)c1cnccn1` it is 13%. Consider `COc1ccc(C2CC(c3cccs3)=NN2C(=O)CCl)cc1OC` (stereo not drawn), for which the “hERG current change (%, negative = inhibition) at 10uM” value is given as -13.5%. The result for `O=c1cc(N2CCCCCC2)[nH]c(=O)n1-c1ccccc1Cl` reads 20.2%. The figure for `O=C(NC(=S)Nc1ccc(CN2CCOCC2)cc1)c1ccc2c(c1)OCCO2` is -13.9%. Turning to `Oc1ccc(/C=N/Nc2ccc(C(F)(F)F)cn2)cc1`, the “hERG current change (%, negative = inhibition) at 10uM” value is given as -12.4%.

Regarding `CC1(C)Cc2c(cnn2-c2ccccc2)C(NC(=O)c2ccc[n+]([O-])c2)C1` (stereo not drawn), the “hERG current change (%, negative = inhibition) at 10uM” value was found to be 2.3%.

Turning to `CCN(CC)S(=O)(=O)c1ccc(C(=O)NCc2n[nH]c(=S)n2-c2ccc(Cl)c(Cl)c2)cc1`, the “hERG current change (%, negative = inhibition) at 10uM” value was found to be 10.4%. The figure for `N#Cc1cc(-c2ccccc2)cnc1Sc1ccccc1` is -0.515%; for `CCOC(=O)C1(Cc2ccccc2C)CCCN(Cc2ccc(NC(C)=O)cc2)C1` (stereo not drawn) it is 11.5%; for `CCCNC(=O)c1onc(CSc2ccc(Cl)cc2)c1C(=O)NCCC(C)C` it is -1.16%. Take `CCNC(=O)NC1c2ccccc2CSc2ccccc21.O` (stereo not drawn): the “hERG current change (%, negative = inhibition) at 10uM” value is on record as 12.7%. The figure for `O=C(Nc1cccnc1)c1cnc2ccccc2n1` is 12.1%; for `C=CCn1c(SCC(=O)NCC(=O)OCC)nnc1-c1cccc(OC)c1` it is 14%; for `CC(C)(C)NCc1cc(Br)ccc1OCc1cccs1.Cl` it is -52.5%. The result for `Cc1ccc(Oc2ncccc2COC(=O)Nc2ccccc2C)cc1` reads 25.3%; that for `CC(=O)c1ccc(NC(=O)C(Cc2ccccc2)n2cccc2)cc1` (stereo not drawn), 1.67%. The result for `Cc1nn2c(-c3cccc(NC(=O)CN4CCOCC4)c3)nnc2c2ccccc12` reads -22.6%.

Take `COC(=O)C1=C(c2ccc(F)cc2OCc2ccccc2)C[C@@H]2CC[C@H]1N2C(=O)NCc1ccccc1Cl`: the “hERG current change (%, negative = inhibition) at 10uM” value turned out to be 12.3%. The result for `C/C(=N/OCC(=O)Nc1ccc(C)cc1C)c1cccs1` reads -11.7%. The result for `O=c1nc2n(c3c4c(sc13)CCC4)CCC2` reads 5.51%; that for `O=C1NC(=Nc2ccc(Cl)cc2)SC1Cc1cccc(Cl)c1Cl` (stereo not drawn), -9.15%; that for `COc1ccc(C(F)(F)F)cc1N/C=C/c1nnnn1-c1ccc2ccccc2c1`, 1.6%.

In the case of `CCCCC(NS(=O)(=O)c1ccc(OC)cc1)C(=O)O` (stereo not drawn), the “hERG current change (%, negative = inhibition) at 10uM” value was -2.21%. The result for `CCOC(=O)C(O)(c1ccc(NC(=O)NC)cc1)C(F)(F)F` (stereo not drawn) reads 4.26%; that for `O=C(CCC(=O)Nc1ccc(F)cc1)N/N=C/c1ccccc1`, 11.7%. The result for `CC(Sc1ccccn1)C(=O)Nc1ccccc1` (stereo not drawn) reads 4.37%. The figure for `Cc1ccc(S/C(=N\S(=O)(=O)c2ccc(Cl)cc2)c2ccccc2)cc1` is 11.5%. `CCn1c(-c2cccc(Cl)c2)n[nH]c1=S`: the “hERG current change (%, negative = inhibition) at 10uM” value amounted to 9.71%. The result for `O=C(NNC(=O)c1csc(-c2cccnc2)n1)Nc1ccc(Cl)cc1` reads 27.2%; that for `O=C(Nc1ccccc1F)c1ccc(-c2cccc([N+](=O)[O-])c2)o1`, 20%; that for `CC1CCCC(C)N1CCCNC(=O)c1ccc2nc(N3CCOCC3)sc2c1` (stereo not drawn), -10.3%. The figure for `CC(C)(C)NC(=O)C(=O)NCc1ccccn1` is 18.5%; for `Cc1nnc(NC(=O)CSc2ccc(-c3ccc(Cl)cc3)nn2)s1` it is 17%; for `COc1ccccc1CNC(=O)CCNC(=O)N1CC(=O)Nc2ccccc21` it is 16.4%. The result for `COc1ccc(CN2CCNC(=O)C2CC(=O)NC2CCCC2)c(C)c1C` (stereo not drawn) reads 5.26%; that for `COCCCN(C(=S)Nc1ccc(C)cc1Cl)C(C)c1ccncc1` (stereo not drawn), -19%; that for `O=C(O)c1ccccc1C(=O)N(c1ccccc1)c1ccccc1`, -2.55%. Turning to `CCC(=O)Nc1c2c(nn1-c1ccc(F)cc1)CS(=O)C2` (stereo not drawn), the “hERG current change (%, negative = inhibition) at 10uM” value worked out at 5.41%.

For `Cc1cc(C(=O)NNC(=S)NC(C)c2ccccc2)cs1` (stereo not drawn), the “hERG current change (%, negative = inhibition) at 10uM” value is reported as -7.03%. On to `O=c1c2nnn(-c3ccccc3)c2ncn1C/C=C/c1ccccc1`, for which the “hERG current change (%, negative = inhibition) at 10uM” value is recorded as 19.5%. The result for `CCN1CCN(c2ccc(NC(=O)CCc3c(C)nc4c(-c5ccccc5)c(C)nn4c3C)cc2)CC1` reads -20%.

`COc1ccc(C2=NN(C(=O)CCC(=O)O)C(c3ccc([N+](=O)[O-])cc3)C2)cc1` (stereo not drawn): the “hERG current change (%, negative = inhibition) at 10uM” value is recorded as 10.2%. The result for `CC1(C)CC(=O)C=C(NCCCNC2CCCCC2)C1` reads 12.4%; that for `COc1ccccc1CNC(=O)C1CCN(C(=O)[C@@H]2Cc3ccccc3CN2)CC1`, -25.6%. The figure for `CC(=O)c1c(C)[nH]c(C(=O)Nc2cccc(S(=O)(=O)N3CCCCC3)c2)c1C` is 13.7%; for `CCOc1ccc(/C=N/NC(=O)c2ccc(CSc3nc4ccccc4[nH]3)cc2)cc1` it is 6.74%. On to `O=c1[nH]c(N2CCOCC2)nc2ncn(Cc3ccccc3)c12`, for which the “hERG current change (%, negative = inhibition) at 10uM” value is on record as 6.6%. For `O=C(NCCSc1c[nH]c2ccccc12)c1ccco1`, the “hERG current change (%, negative = inhibition) at 10uM” value was -1.65%. The figure for `N#C/C(=C/Nc1ccccc1)c1ccsc1` is 7.85%. The figure for `C[C@]12CCC3C(CCC4=C/C(=N/OCC(=O)NC(CCC(=O)O)C(=O)O)CC[C@@]43C)C1CCC2O` (stereo partly drawn) is 14.3%.

For the compound `O=C(COC(=O)CNS(=O)(=O)/C=C/c1ccccc1)Nc1cccc2ccccc12`, the “hERG current change (%, negative = inhibition) at 10uM” value worked out at 14.6%. The figure for `CC(=O)NS(=O)(=O)c1ccc(NC(=S)NC(=O)Cc2ccccc2)cc1` is 9.41%; for `CCCCN(CCCC)CCCNC(=O)C12CN(Cc3ccccc3)CC1C(c1cccc([N+](=O)[O-])c1)=NO2` (stereo not drawn) it is -80.6%. In the case of `CCOc1ccc(NC(=O)CN2CCN(Cc3c(F)cccc3F)CC2)cc1`, the “hERG current change (%, negative = inhibition) at 10uM” value was -75.3%. For `Cc1cc(C)cc(NC(=S)N(CCCN2CCN(C)CC2)Cc2cccs2)c1`, the “hERG current change (%, negative = inhibition) at 10uM” value is reported as -63.3%. The figure for `CCOC(=O)c1c(C)[nH]c(C(=O)Cn2nnc(-c3ccc(Cl)cc3)n2)c1C` is 2%. The result for `COCCn1c(COc2ccc(OC)cc2)nc2ccccc21` reads -14.3%. The result for `O=C(O)c1cc(S(=O)(=O)N2CCOCC2)ccc1N1CCCCC1` reads 23.4%; that for `CCOc1ccccc1N(C(=O)c1ccco1)C(C(=O)NC1CCCC1)c1cccnc1` (stereo not drawn), -3.37%; that for `O=C(Nc1cc(=O)[nH]c2ncnn12)c1ccccc1Cl`, 1.15%. With `O=C(CN1CCc2ccccc2C1)Nc1ccccc1C(F)(F)F.O=C(O)C(=O)O`, the “hERG current change (%, negative = inhibition) at 10uM” value amounted to 10.6%. As for `CC(C)C(=O)Nc1nnc(S(=O)(=O)N2c3ccccc3CC2C)s1` (stereo not drawn), the “hERG current change (%, negative = inhibition) at 10uM” value came to 13.4%.

For `CNC(=O)Nc1cccc(NC(=O)NC)n1`, the “hERG current change (%, negative = inhibition) at 10uM” value is -2.6%. The figure for `CCOC(=O)N1CCN(C(=O)Cc2ccccc2OC)CC1` is 19.7%. As for `Cc1cc(/C=C2/NC(=O)N(c3ccccc3)C2=O)c(C)n1C(C)C`, the “hERG current change (%, negative = inhibition) at 10uM” value is 33.9%. The figure for `COc1ccccc1-c1nnc(SCc2ccccn2)n1C` is -10.2%; for `Cc1cc(NC(=O)CC#N)n(-c2ccccc2)n1` it is 21.3%; for `COc1ccccc1NC(=O)CN1CCN(CC(=O)Nc2ccc(OCc3ccccc3)cc2)CC1` it is -25.1%. Turning to `Cc1ccccc1-c1nn(-c2ccccc2)cc1C(=O)NCC(c1ccco1)N1CCCC1` (stereo not drawn), the “hERG current change (%, negative = inhibition) at 10uM” value was -14.3%.

Regarding `CCOc1cc(CNC(C)C)c(Cl)cc1OCC(=O)NCCc1ccccc1`, the “hERG current change (%, negative = inhibition) at 10uM” value is -16.4%. The figure for `CCCC(=O)NC(c1ccc(OC)c(OC)c1)c1cc(Cl)c2cccnc2c1O` (stereo not drawn) is 7.56%.

Take `CC1CCC2(CC1)NC(=O)N(Cc1nnc(-c3cccs3)o1)C2=O` (stereo not drawn): the “hERG current change (%, negative = inhibition) at 10uM” value is listed as -2.73%. The figure for `O=c1c2ccccc2c(/C=N/n2cnnc2)c(O)n1-c1ccccc1` is -3.51%; for `CN(C)c1ccc(/C=N/N(CCC#N)C2=NS(=O)(=O)c3ccccc32)cc1` it is 19%.

As to `CC(C)OC(=O)/C(=C/c1ccc(Br)cc1)NC(=O)c1ccco1`, the “hERG current change (%, negative = inhibition) at 10uM” value was -32.9%. The result for `O=C(NCCNc1ccnc2cc(Cl)ccc12)c1ccccc1F` reads -66.4%; that for `CCc1ccc[n+](-c2nc3ccccc3nc2C(=C=[N-])C#N)c1`, -9.11%; that for `O=C(Nc1ccc(CN2CCCCC2)cc1)c1cccc(F)c1`, -40%.

For the compound `Cc1ccc(NC(=O)C(=O)NCCN2CCN(S(C)(=O)=O)CC2)cc1C`, the “hERG current change (%, negative = inhibition) at 10uM” value was found to be 0.0768%.

Take `O=C(NCCCN1CCCC1=O)C1CCN(S(=O)(=O)c2ccc(Cl)cc2)CC1`: the “hERG current change (%, negative = inhibition) at 10uM” value was -8.8%. In the case of `O=C(O)CCNC1CCCCC1`, the “hERG current change (%, negative = inhibition) at 10uM” value was found to be 16.2%. Turning to `CC(=O)c1ccc(NC(=O)CSc2ccc(-c3ccco3)nn2)cc1`, the “hERG current change (%, negative = inhibition) at 10uM” value is given as 4.76%. As for `COc1ccc(C2CC(=O)C(C=NCCO)=C(O)C2)cc1` (stereo not drawn), the “hERG current change (%, negative = inhibition) at 10uM” value came out at 3.22%. The figure for `Cc1ccccc1C(=O)N1CCN(c2ccc(NC(=O)c3cccs3)cc2)CC1` is 4.97%; for `Cc1cc(N2CCN(c3ccccc3)CC2)nc(N2CCOCC2)n1` it is -44.9%.
